Results published in PubChem BioAssay AID485294 (National Center for Advancing Translational Sciences (NCATS), 2010).
Among all 370,000 compounds or so, about 150 (0.041%) were called active. The inconclusive results got no clear call from the source; some entries with a clear call stand among them for comparison. Calls come from the whole dose curve; as a rule, active = well fitted inhibition curve with a large enough effect; inconclusive = small, poorly fitted or top-dose-only effect; inactive = flat fitted curve, though single readings scatter. No potency is given beside an inconclusive call; the fits are too rough.

target: Beta-lactamase (Escherichia coli (strain K12)) (UniProt P00811); assay: qHTS Inhibitors of AmpC Beta-Lactamase (assay with detergent); conditions: AmpC hydrolysis of nitrocefin, absorbance 480 nm, 0.01% Triton; series mostly up to 114 µM; note: nearly all actives have a fitted effect of over 25% in size
Method in brief: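 20 mM phosphate pH 7.0 + 0.01% (detergent screen) or 0.0001% Triton X-100; 5.3 nM AmpC reagent; cpd preinc 15 min RT; nitrocefin (800 uM stock) to start; A480 q20 s × 4 min; Activity was normalised to no-enzyme and no-compound control wells.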
Potency is the fitted concentration of half-maximal effect; tags give direction and shape of the fitted curve.

Chain of UniProt P00811 (P00811 whole entry, looked up): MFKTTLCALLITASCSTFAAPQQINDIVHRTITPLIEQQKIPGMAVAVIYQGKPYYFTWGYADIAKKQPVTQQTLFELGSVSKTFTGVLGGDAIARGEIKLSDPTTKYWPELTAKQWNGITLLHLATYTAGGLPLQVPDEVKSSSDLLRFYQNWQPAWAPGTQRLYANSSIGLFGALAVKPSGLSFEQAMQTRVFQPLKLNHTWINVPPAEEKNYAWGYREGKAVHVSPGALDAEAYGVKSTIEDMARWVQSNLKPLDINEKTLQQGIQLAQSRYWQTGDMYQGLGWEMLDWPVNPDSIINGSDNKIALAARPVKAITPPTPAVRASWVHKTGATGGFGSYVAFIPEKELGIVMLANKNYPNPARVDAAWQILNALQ

Row | SMILES | Potency
1 | COc1cccc(OCCCN2CCCCC2)c1 | inconclusive [inhibitor, full curve, poor fit]
2 | O=C(Cc1ccccc1)Nc1ccc(C(=O)NCc2ccccc2)cc1 | inconclusive [inhibitor, full curve]
3 | Cc1cc(S(=O)(=O)NCCCN2CCOCC2)ccc1F | inconclusive [inhibitor, partial curve, poor fit]
4 | CCCOc1cccc(C(=O)Nc2nnn(CCC)n2)c1 | inconclusive [inhibitor, full curve, poor fit]
5 | COc1ccc(C(=O)N2CCOC2CNC(=O)C(=O)NCc2ccc3c(c2)OCO3)cc1 (configuration not stated) | inconclusive [inhibitor, partial curve]
6 | CCOc1ccc(CSCCNC(=S)Nc2ccc(OC)cc2)cc1 | inactive
7 | Cc1ccc(S(=O)(=O)N2CCC(=O)N(C(COCc3cccc(Cl)c3)C(C)C)CC2)cc1 (configuration not stated) | inconclusive [inhibitor, partial curve, poor fit]
8 | Cc1cccc(NS(=O)(=O)c2cccc(C(=O)N3CCCCCCC3)c2)c1 | inactive
9 | COc1ccc(CNC(=O)Nc2cccc(C)c2)cc1 | inconclusive [inhibitor, full curve, poor fit]
10 | Cc1ccc(-n2c(Cc3cccn3C)nnc2SCC(=O)NCc2ccc3c(c2)OCO3)cc1 | inconclusive [inhibitor, full curve, poor fit]
11 | N#CC1=C(N)OC2=C(CN(Cc3ccccc3)C/C2=C\c2cccnc2)C1c1cccnc1 (configuration not stated) | inactive
12 | Cc1ccc(NC(=O)C(C)N2C(=O)c3ccccc3S2(=O)=O)cc1Cl (configuration not stated) | inconclusive [inhibitor, partial curve, poor fit]
13 | Cc1c(OCC(=O)N[C@@H](CSCc2ccccc2)C(=O)O)ccc2c3c(c(=O)oc12)CCC3 | inconclusive [inhibitor, full curve, poor fit]
14 | Cc1cccc(C)c1NC(=O)C1NC(=O)CC1c1ccccc1 (configuration not stated) | inconclusive [inhibitor, full curve, poor fit]
15 | CCN(CC)c1ncnc2scc(C3COc4ccccc4O3)c12 (configuration not stated) | inconclusive [inhibitor, partial curve, poor fit]
16 | COc1cc(NC(=O)CN2C(=O)c3ccccc3S2(=O)=O)c(OC)cc1Cl | inconclusive [inhibitor, full curve]
17 | CCn1cc(/C=C(\NC(=O)c2ccccc2Cl)C(=O)NCCN2CCOCC2)c2ccccc21 | inconclusive [inhibitor, full curve, poor fit]
